The other results are listed elsewhere or left out. Sequences were assembled here from the parent chain. Values near 0.05 are background.
B1: TEV protease; numbered along this chain (parent)
chain: MGESLFKGPRDYNPISSSICHLTNESDGHTTSLYGIGFGPFIITNKHLFRRNNGTLVVQSLHGVFKVKDTTTLQQHLVDGRDMIIIRMPKDFPPFPQKLKFREPQREERICLVTTNFQTKSMSSMVSDTSCTFPSGDGIFWKHWIQTKDGQCGSPLVSTRDGFIVGIHSASNFTNTNNYFTSVPKNFMELLTNQEAQQWVSGWRLNADSVLWGGHKVFMVKPEEPFQPVKEATQL

Variants of: B1
Test: raw area under fraction-flipped curve 0-4 h after induction (AUC4h, not background-subtracted), DNA-recorder readout of cleavage of the substrate (dimensionless); higher = more cleavage of the substrate by the protease variant
Conditions: temperature: 34 °C; time window: 0-4 h after rhamnose induction
Description: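 In vivo DNA recorder in E. coli TOP10(DE3) ΔrhaA at 34 °C. Each TEVp single-site mutant (parent TEVp 0) is paired with a single-site variant of the 7-mer TEVs (canonical ENLYFQ|S). The substrate sits between flexible linkers in a Bxb1-sfGFP-TEVs-SsrA fusion, so cleavage stabilises Bxb1 and speeds flipping of a recombination array, read by NGS. The value is the raw area under the fraction-flipped curve over 0-4 h after rhamnose induction (AUC4h), with ≥20 reads per time point. It is not background-subtracted; inactive controls average about 0.047.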
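Also: Bxb1 expression induced with 0.2% (w/v) L-rhamnose at OD600 near 0.5, cultures sampled hourly, flipped fraction per protease–substrate barcode pair counted by paired-end Illumina sequencing.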

Variant	area with substrate ENLYFQA	area with substrate ENLYFQC	area with substrate ENLYFQD	area with substrate ENLYFQE	area with substrate ENLYFQG	area with substrate ENLYFQH	area with substrate ENLYFQI	area with substrate ENLYFQK	area with substrate ENLYFQL	area with substrate ENLYFQM	area with substrate ENLYFQN	area with substrate ENLYFQQ	area with substrate ENLYFQR	area with substrate ENLYFQS	area with substrate ENLYFQT	area with substrate ENLYFQV	area with substrate ENLYFQW	area with substrate ENLYFQF	area with substrate ENLYFQY	area with substrate ENLYFQP
D161Y	0.0661	0.0629	0.0625	0.0397	0.0596	0.0693	0.0468	0.0477	0.059	0.054	0.0514	0.0557	0.0558	0.0684	0.0478	0.0361	0.0528			
D149V	0.0772				0.0795	0.0673			0.0459		0.0734		0.0643	0.0889	0.0658		0.058	0.0746	0.0724	
V165G	0.0551	0.0548	0.0526		0.0498	0.0495	0.045	0.0579	0.0351	0.0527	0.0504	0.0468	0.0276	0.0526	0.0516			0.0745	0.057	
G162S	0.123	0.0852				0.0613	0.0799	0.0384	0.0644	0.0781	0.0907		0.0682	0.0909	0.0843		0.0673			
G162A	0.103				0.112		0.0627	0.116	0.054	0.0722				0.0965	0.0572	0.0792			0.0787	
T174P	0.0634	0.0899				0.087		0.0598	0.0576		0.0604		0.0713	0.0776	0.058	0.0652		0.062	0.0646	0.086
Q151G	0.119	0.113	0.0603		0.119	0.0495	0.0618	0.0614		0.0795	0.0601		0.0516	0.111	0.0707	0.0822				0.0634
Q198E	0.148	0.124		0.0618	0.108	0.1	0.0605	0.0594	0.0649		0.0901		0.0628	0.118	0.0644	0.0579	0.0722	0.0743	0.103	0.0443
Q198R	0.0954	0.0963			0.117	0.0632			0.0617	0.0857	0.079	0.0814	0.0263	0.108	0.0677	0.0672	0.0568	0.078	0.0607	
Q198C	0.0545	0.0976			0.0846	0.0753		0.0542	0.0693	0.0732	0.0585		0.0634	0.0963	0.0658	0.068	0.0569			0.0535
L191G	0.0675		0.0529		0.064	0.0433	0.0499	0.0689	0.06		0.049		0.0574	0.0605	0.0613		0.0423		0.0685	
L191M	0.121	0.096	0.0523		0.094	0.0714	0.064	0.063	0.0581	0.0786	0.069		0.0627	0.0954	0.071	0.0621	0.0656		0.069	0.0689
I167S	0.0674	0.0827			0.0735	0.0822	0.0514	0.0594	0.0475	0.0607	0.0592		0.0537	0.074	0.0525	0.0636		0.0377	0.0703	0.056
R160P	0.0772	0.0739			0.0692		0.0569	0.0552	0.0549	0.0754		0.0672	0.0542	0.0829	0.0478	0.0406	0.0611		0.0628	
K148W	0.0777	0.0869			0.01	0.0615	0.0533	0.0628	0.0646	0.0828	0.0671	0.0585	0.0625	0.0912	0.0579	0.0727	0.067	0.0883		0.0598
V183N	0.0544						0.0839	0.0527			0.0481		0.0691	0.0861			0.0479		0.0448	0.0638
G153P	0.0487	0.0538	0.0493				0.0449	0.0644	0.0418	0.0287	0.0511		0.0397	0.0491		0.0449	0.0454			
A207N	0.055	0.0977			0.102		0.0412		0.059	0.0732	0.0801	0.0809	0.0636	0.102	0.055				0.0644	
F173M	0.113	0.141	0.0735	0.0557		0.0559		0.0816	0.0585	0.0806			0.0523	0.109			0.0813	0.0567	0.061	0.0409
S154F	0.0774			0.0844			0.0582		0.0586		0.0688			0.0833	0.0709				0.0519	
S154L	0.181		0.111			0.102	0.0587				0.0872		0.067	0.137	0.0645		0.0672		0.0756	0.0628
S154M	0.096							0.063			0.0627		0.0534	0.0953	0.0592		0.0603			
S154C	0.1	0.121	0.0587	0.0597	0.0944	0.0905	0.0613	0.0598	0.0632	0.0909	0.0829	0.0896	0.0614	0.104		0.0521	0.0538	0.0683	0.0783	0.0785
S201A	0.103	0.106	0.065	0.051			0.0629	0.0819	0.0671	0.0697	0.0704		0.0532	0.0961					0.0727	0.0597
G202Y	0.0685	0.0485	0.0705		0.0606	0.0517		0.0582	0.0481		0.078	0.0345	0.0606	0.065	0.055	0.0309		0.0573	0.0493	
T192F	0.0965				0.0977		0.0764	0.0736	0.0657		0.0459	0.0491		0.107	0.0626	0.0521			0.0508	
